Results: the supplement of paper PMC4604168 (melanoma cell lines)
The other results are listed elsewhere or left out. Most values come without repeats; read them as rough.

What was measured:
Test in all cases: cell count relative to DMSO control; melanoma cells; higher = more viable cells
Conditions in all cases: library dose: low library concentration; 72 h
COLO792 = test system: COLO792
COLO800 = test system: COLO800
COLO829 = test system: COLO829
G361 = test system: G361
IPC-298 = test system: IPC-298
IST-MEL1 = test system: IST-MEL1
LB2518-MEL = test system: LB2518-MEL
LOXIMVI = test system: LOXIMVI
MEL-HO = test system: MEL-HO
MZ2-MEL = test system: MZ2-MEL
MeWo = test system: MeWo
RPMI7951 = test system: RPMI7951
RVH-421 = test system: RVH-421
SkMel28 = test system: SkMel28
SkMel2 = test system: SkMel2
SkMel30 = test system: SkMel30
SkMel5 = test system: SkMel5
UACC257 = test system: UACC257
UACC62 = test system: UACC62
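Further: cell number obtained by counting DAPI-stained nuclei in high-throughput microscope images with image analysis software, screen run in 1,536-well plates.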

| SMILES | cell count (COLO792) | cell count (COLO800) | cell count (COLO829) | cell count (G361) | cell count (IPC-298) | cell count (IST-MEL1) | cell count (LB2518-MEL) | cell count (LOXIMVI) | cell count (MEL-HO) | cell count (MZ2-MEL) | cell count (MeWo) | cell count (RPMI7951) | cell count (RVH-421) | cell count (SkMel28) | cell count (SkMel2) | cell count (SkMel30) | cell count (SkMel5) | cell count (UACC257) | cell count (UACC62) |
| --- | --- | --- | --- | --- | --- | --- | --- | --- | --- | --- | --- | --- | --- | --- | --- | --- | --- | --- | --- |
| OCCn1cc(-c2cnc3nnn(Cc4ccc5ncccc5c4)c3n2)cn1 + COc1cc2c(Oc3ccc4[nH]c(C)cc4c3F)ncnc2cc1OCCCN1CCCC1 [cediranib] (first compound 1 µM, partner dose 0.4 µM) | 90.2% | 148% | 91.3% | 97.1% | 97.9% | 99.3% | 93.5% | 68.8% | 97.5% | 96.5% | 93.2% | 101% | 99.1% | 103% | 100% | 114% | 101% | 94% | 96% |
| CO[C@@H]1[C@H](N(C)C(=O)c2ccccc2)C[C@H]2O[C@]1(C)n1c3ccccc3c3c4c(c5c6ccccc6n2c5c31)C(=O)NC4 [Midostaurin] + Cc1cc(N2CCOCC2)cc2[nH]c(-c3c(NC[C@@H](O)c4cccc(Cl)c4)cc[nH]c3=O)nc12 [BMS536924] (first compound 0.08 µM, partner dose 0.2 µM) | 95.1% | 65.3% | 81.7% | 94.9% | 90.3% | 95.6% | 77.7% | 182% | 90.6% | 103% | 88% | 87.6% | 82.2% | 86.1% | 71% | 102% | 81.5% | 60.2% | 95.1% |
| CO[C@@H]1[C@H](N(C)C(=O)c2ccccc2)C[C@H]2O[C@]1(C)n1c3ccccc3c3c4c(c5c6ccccc6n2c5c31)C(=O)NC4 [Midostaurin] + NC(=O)Nc1cc(-c2cccc(F)c2)sc1C(=O)N[C@H]1CCCNC1 [AZD7762] (first compound 0.08 µM, partner dose 0.02 µM) | 97% | 124% | 87.4% | 99.8% | 91.7% | 107% | 116% | 73.5% | 88.3% | 94.3% | 79.2% | 74.7% | 89.6% | 103% | 97% | 103% | 106% | 94.6% | 97.2% |
| NC(=O)Nc1cc(-c2cccc(F)c2)sc1C(=O)N[C@H]1CCCNC1 + COc1cc2c(Oc3ccc4[nH]c(C)cc4c3F)ncnc2cc1OCCCN1CCCC1 [cediranib] (first compound 0.02 µM, partner dose 0.4 µM) | 98% | 78.1% | 115% | 116% | 112% | 115% | 135% | 71.7% | 105% | 117% | 103% | 82% | 129% | 100% | 105% | 85.5% | 110% | 153% | 94.1% |
| C=CCn1c(=O)c2cnc(Nc3ccc(N4CCN(C)CC4)cc3)nc2n1-c1cccc(C(C)(C)O)n1 + C[C@@H]1CCN(C(=O)CC#N)C[C@@H]1N(C)c1ncnc2[nH]ccc12 [CP690550] (first compound 0.02 µM, partner dose 1 µM) | 92.1% | 150% | 86.9% | 95.6% | 107% | 87.8% | 102% | 76% | 103% | 103% | 104% | 90.8% | 87.7% | 73% | 95.6% | 108% | 87.8% | 67.4% | 84.3% |
| Cc1nc(Nc2ncc(C(=O)Nc3c(C)cccc3Cl)s2)cc(N2CCN(CCO)CC2)n1 [dasatanib] + Cc1cc(N2CCOCC2)cc2[nH]c(-c3c(NC[C@@H](O)c4cccc(Cl)c4)cc[nH]c3=O)nc12 [BMS536924] (first compound 0.004 µM, partner dose 0.2 µM) | 50.5% | 32.1% | 91.1% | 87.8% | 85.9% | 87.1% | 82.9% | 86.8% | 86% | 78% | 81.7% | 73.6% | 101% | 71.6% | 94.3% | 84.1% | 84.6% | 64.5% | 81.2% |
| CO[C@@H]1[C@H](N(C)C(=O)c2ccccc2)C[C@H]2O[C@]1(C)n1c3ccccc3c3c4c(c5c6ccccc6n2c5c31)C(=O)NC4 [Midostaurin] + NCC(=O)Nc1ccc(-n2nc(C(F)(F)F)cc2-c2ccc3c(ccc4ccccc43)c2)cc1 [OSU03012] (first compound 0.08 µM, partner dose 1 µM) | 91.9% | 134% | 103% | 95.8% | 87.7% | 90.4% | 95.2% | 56.2% | 90.6% | 92.5% | 50.3% | 63.8% | 106% | 83.3% | 78% | 53.9% | 73.5% | 67.6% | 88.1% |
| CO[C@@H]1[C@H](N(C)C(=O)c2ccccc2)C[C@H]2O[C@]1(C)n1c3ccccc3c3c4c(c5c6ccccc6n2c5c31)C(=O)NC4 [Midostaurin] + C[C@@H]1CCN(C(=O)CC#N)C[C@@H]1N(C)c1ncnc2[nH]ccc12 [CP690550] (first compound 0.08 µM, partner dose 1 µM) | 90% | 86.2% | 92.2% | 83.2% | 94.5% | 94.3% | 97.7% | 69.1% | 100% | 95.1% | 81% | 72.4% | 78.1% | 102% | 73.4% | 96.8% | 85.3% | 86.9% | 90.3% |
| Cc1nc(Nc2ncc(C(=O)Nc3c(C)cccc3Cl)s2)cc(N2CCN(CCO)CC2)n1 [dasatanib] + CC(C)(C)c1cnc(CSc2cnc(NC(=O)C3CCNCC3)s2)o1 [SNS-032] (first compound 0.004 µM, partner dose 0.01 µM) | 72.6% | 56.3% | 81.3% | 106% | 111% | 84.2% | 89.8% | 52.6% | 88% | 72.9% | 91.2% | 57.2% | 74.7% | 70.8% | 102% | 105% | 91.1% | 39.6% | 82.2% |
| Cc1nc(Nc2ncc(C(=O)Nc3c(C)cccc3Cl)s2)cc(N2CCN(CCO)CC2)n1 [dasatanib] + O=C(CCCCCCC(=O)Nc1ccccc1)NO [vorinostat] (first compound 0.004 µM, partner dose 0.08 µM) | 67.6% | 67.2% | 62.4% | 83.3% | 104% | 85% | 89.4% | 53.5% | 93.2% | 85.5% | 84.8% | 68.3% | 92.6% | 58.3% | 98% | 94.6% | 88.7% | 51.9% | 89.3% |
| Cc1nc(Nc2ncc(C(=O)Nc3c(C)cccc3Cl)s2)cc(N2CCN(CCO)CC2)n1 [dasatanib] + CN(C)S(=O)(=O)c1ccc2c(c1)/C(=C/c1cc3c([nH]1)CCCC3)C(=O)N2 [SU6656] (first compound 0.004 µM, partner dose 0.4 µM) | 61.9% | 99.1% | 65.6% | 76.6% | 94.1% | 78.6% |  | 27.4% | 83.9% |  | 82.2% | 52.2% | 83% | 64.9% | 92.7% | 83.8% | 85.5% | 86.6% | 78.5% |
| Cc1nc(Nc2ncc(C(=O)Nc3c(C)cccc3Cl)s2)cc(N2CCN(CCO)CC2)n1 [dasatanib] + CO[C@@H]1[C@H](N(C)C(=O)c2ccccc2)C[C@H]2O[C@]1(C)n1c3ccccc3c3c4c(c5c6ccccc6n2c5c31)C(=O)NC4 [Midostaurin] (first compound 0.004 µM, partner dose 0.08 µM) | 64.6% | 76% | 73.1% | 86.5% | 91.4% | 81.9% | 88.9% | 36.1% | 84.3% | 71.7% | 72% | 64% | 87.1% | 90.1% | 82.6% | 94.1% | 87.2% | 56.4% | 81.1% |
| CO[C@@H]1[C@H](N(C)C(=O)c2ccccc2)C[C@H]2O[C@]1(C)n1c3ccccc3c3c4c(c5c6ccccc6n2c5c31)C(=O)NC4 [Midostaurin] + CN(NC(=O)CC(=O)NN(C)C(=S)c1ccccc1)C(=S)c1ccccc1 [STA4783] (first compound 0.08 µM, partner dose 0.006 µM) | 66.3% | 43.6% | 55% | 70.3% | 86.3% | 75.9% |  | 110% | 84% |  | 77.6% | 109% | 74.3% | 97.3% |  | 107% | 94.8% | 74.8% | 89% |
| C[C@]1(c2nc3c(C(N)=O)cccc3[nH]2)CCCN1 [Veliparib] + Cc1cc(N2CCOCC2)cc2[nH]c(-c3c(NC[C@@H](O)c4cccc(Cl)c4)cc[nH]c3=O)nc12 [BMS536924] (first compound 1.4 µM, partner dose 0.2 µM) | 85% | 65.2% | 89.8% | 80.4% | 94% | 101% |  | 97.3% | 95% |  | 83.1% | 100% | 96.4% | 79.3% |  | 95.1% | 93.1% | 77.9% | 77.4% |
| CN(C)S(=O)(=O)c1ccc2c(c1)/C(=C/c1cc3c([nH]1)CCCC3)C(=O)N2 + O=C(O)c1ccc(-c2c[nH]c3ncc(-c4ccccc4)cc23)cc1C1CCCC1 [GSK650394] (first compound 0.4 µM, partner dose 0.16 µM) | 107% | 71.1% | 104% | 82.6% | 92.3% | 99.9% | 90.4% | 139% | 96.1% | 96.6% | 85.7% | 96.4% | 96.7% | 74.5% | 96% | 95.1% | 96.7% | 75.6% | 104% |
